# Measured values from article PMC4336329 (PLoS ONE, 2015).
# About 14,000 (4.5%) of roughly 310,000 compounds showed an effect of 50% or more. Effects have a minus sign here. The list shows a part of the results.
# Target: human ether-à-go-go-related gene (hERG) potassium channel (human, UniProt Q12809)
# Assay: primary screen, population patch clamp on CHO cells stably expressing hERG
# 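Further: peak tail current of the secondary pulse compared with the same well before compound.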
# Chain of human ether-à-go-go-related gene (hERG) potassium channel (Q12809 whole entry, looked up): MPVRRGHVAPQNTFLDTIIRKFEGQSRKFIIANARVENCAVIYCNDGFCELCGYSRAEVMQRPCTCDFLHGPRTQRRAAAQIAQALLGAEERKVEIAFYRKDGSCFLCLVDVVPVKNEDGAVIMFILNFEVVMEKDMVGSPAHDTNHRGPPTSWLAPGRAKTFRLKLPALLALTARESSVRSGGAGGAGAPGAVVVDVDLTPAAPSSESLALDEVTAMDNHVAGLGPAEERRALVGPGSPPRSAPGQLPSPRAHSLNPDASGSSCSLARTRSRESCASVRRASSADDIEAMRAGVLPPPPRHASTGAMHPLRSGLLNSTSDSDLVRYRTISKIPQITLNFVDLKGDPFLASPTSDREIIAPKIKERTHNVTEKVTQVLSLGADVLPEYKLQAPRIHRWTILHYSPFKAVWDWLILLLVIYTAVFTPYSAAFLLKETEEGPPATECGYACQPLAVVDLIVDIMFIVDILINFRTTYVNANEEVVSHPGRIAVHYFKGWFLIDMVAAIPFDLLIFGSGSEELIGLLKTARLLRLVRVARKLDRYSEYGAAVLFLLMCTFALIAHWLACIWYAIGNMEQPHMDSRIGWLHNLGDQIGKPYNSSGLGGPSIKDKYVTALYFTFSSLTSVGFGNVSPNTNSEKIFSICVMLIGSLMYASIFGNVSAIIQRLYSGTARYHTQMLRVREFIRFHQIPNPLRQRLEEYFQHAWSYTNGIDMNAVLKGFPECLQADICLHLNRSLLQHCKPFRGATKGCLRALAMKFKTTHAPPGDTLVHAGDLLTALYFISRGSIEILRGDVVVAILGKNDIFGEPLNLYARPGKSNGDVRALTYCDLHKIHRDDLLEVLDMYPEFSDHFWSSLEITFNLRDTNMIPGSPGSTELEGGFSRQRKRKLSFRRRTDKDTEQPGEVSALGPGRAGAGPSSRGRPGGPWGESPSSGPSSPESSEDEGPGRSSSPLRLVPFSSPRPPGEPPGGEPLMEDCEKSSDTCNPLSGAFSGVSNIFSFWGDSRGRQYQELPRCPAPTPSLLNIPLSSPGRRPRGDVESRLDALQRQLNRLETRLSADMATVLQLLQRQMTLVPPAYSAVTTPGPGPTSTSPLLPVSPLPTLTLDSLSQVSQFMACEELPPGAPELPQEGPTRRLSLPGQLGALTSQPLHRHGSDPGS
row,SMILES,"hERG current change (%, negative = inhibition) at 10uM [%]"
1,O=C1CC(c2ccccc2)CC2=C1C=Nc1ccccc1N2 (centres unmarked),-61
2,Nc1nonc1-c1nc2ccccc2n1CC(=O)NC1CCCC1,-9.7
3,CC1(C)Cn2c(nc(=O)c3c2NCN(CCc2ccccc2)C3)S1,-0.167
4,NCc1cccc(CNc2ccc([N+](=O)[O-])cc2C(N)=O)c1,-19.9
5,CC(C)NC(=O)C1CCN(S(=O)(=O)c2ccc(N3CCCC3=O)cc2)CC1,16.2
6,N=C1C(c2nc3ccccc3[nH]2)=C(O)CN1c1ccc(F)cc1,-0.0371
7,CC(C)(C)c1cc(C(F)(F)F)n2ncc(-c3ccccc3)c2n1,11.1
8,S=C(NCc1ccc(Cl)c(Cl)c1)NCc1ccco1,-2.07
9,NC(=O)CC(NC(=O)Cc1cccc2ccccc12)c1ccc(N2CCC(Br)CC2)c([N+](=O)[O-])c1 (centres unmarked),-9.19
10,CCSc1nc(-c2ccccc2)c(C#N)c(=O)[nH]1,12.5
11,COc1cc(C(=O)OCC(=O)NC(=O)c2cccn2C)ccc1OC(F)F,16.5
12,Cc1ccc(C(=O)N2CCN(C34CC5CC(CC(C5)C3)C4)CC2)o1,-29.4
13,Cn1c(SCC(=O)NC2CC2)nnc1-c1cccc(NC(=O)c2ccccc2F)c1,-3.11
14,COc1ccc(C2c3ccc4ccccc4c3Oc3ncn(CCCO)c(=N)c32)cc1 (centres unmarked),-71.6
15,Cc1cc(C)n(-c2ccc(Cl)c(C(=O)Nc3cc(C(F)(F)F)ccc3Cl)n2)n1,7.18
16,Cc1ccc2nc(SCC(=O)N3CCC(Cc4ccccc4)CC3)nc(=O)n2c1,-65
17,CC(=O)CC1(O)C(=O)N(CN2CCN(c3ccccc3)CC2)c2ccccc21 (centres unmarked),-8.62
18,COc1ccccc1CNC(=O)CCS(=O)(=O)c1cccc2nonc12,7.52
19,COc1ccc(S(=O)(=O)Nc2cc3c4c(c2)CC(=O)N4CCC3)cc1,-6.18
20,Cc1ccc(NS(=O)(=O)c2c(C(=O)N3CCCCCC3)c(C)n(C)c2C)c(Cl)c1,-4.38
21,COCc1cc(CNC(=O)C2CCC(=O)N(Cc3ccccc3F)C2)[nH]n1 (centres unmarked),15.8
22,CCOC(=O)CNC(=O)c1c2c(nc3ccccc13)CCCC2,10.7
23,O=C(/C=C/c1ccc(Cl)cc1)NCCN1CCOCC1,-24

row,SMILES,"hERG current change (%, negative = inhibition) at 10uM [%]"
1,C[n+]1ccccc1/C=C/c1ccc2ncccc2c1.[I-],18.4
2,CCN(CC(=O)NCc1cccs1)C(=O)c1cc(S(=O)(=O)N2CCOCC2)ccc1C,-20.4
3,O=C(CCCn1c(=O)c2cccn2c2cccnc21)NCc1cccc(Br)c1,-13.8
4,CCn1c(COc2ccc(=O)n(-c3ccccc3)n2)nnc1SC,2.39
5,Cn1c(Cn2c(=O)sc3ccccc32)nnc1SCC(=O)Nc1cccc(Cl)c1,6.52
6,CCSc1ccc(C(=O)NCC(=O)O)cc1,13.1
7,Cc1nn(C)c(C)c1NC(=O)c1cnn2c(C(F)F)cc(-c3ccccc3)nc12,40.4
8,CCn1ncc(C2=NOC(C(=O)NCc3ccccc3)C2)c1C (centres unmarked),-8.34
9,Cn1cnnc1SCC(=O)NCc1cccc(C(F)(F)F)c1,23.8
10,S=C(NCCCN1CCOCC1)Nc1cccc(-c2nnc3n2CCCCC3)c1,16.3
11,CC(CO)(CO)NC(=O)c1ccc(=O)[nH]n1,-2.88
12,CC1=NN(C2=NS(=O)(=O)c3ccccc32)C(C)(O)C1 (centres unmarked),-24.2
13,Cc1ccc(NC(=O)C2(N(C(=O)Cn3nnnc3N)c3ccc(C)cc3)CCCCC2)cc1,18.3
14,CCc1nnc(NC(=O)C2CCCN2C(=O)Nc2ccccc2OC)s1 (centres unmarked),9.41
15,O=C(COC(=O)C1C2CC3OC(=O)C1C3C2)Nc1ccc(F)cc1 (centres unmarked),13.2
16,Nc1nn(-c2ccccc2)c(N)c1N=Nc1ccccc1F,-15.9
17,[O-][n+]1c2ccccc2c2n1CCN=C2c1ccc(Cl)cc1,-0.431
18,COc1ccc(S(=O)(=O)N2CCOCC2)cc1NC(=O)c1cccc(Cl)c1,11.7
19,COCCNC(=O)C(c1ccc(C)o1)N(Cc1ccc(OC)cc1)C(=O)Cn1nnc2ccccc21 (centres unmarked),-11
20,O=C(CCNC(=O)c1ccc(Br)o1)NC1CCCC1,-10.8
21,COc1ccc(/C=N/N=C2\CC3CCC2(C)C3(C)C)cc1O (centres unmarked),-3.34
22,COCCSc1ccccc1C(=O)NCc1ccc2c(c1)OCO2,-3.55
23,O=C(CN1CCN(c2ccccc2)CC1)Nc1ccc2c(c1)OCCO2,5.46

row,SMILES,"hERG current change (%, negative = inhibition) at 10uM [%]"
1,COc1ccc(N(CC(=O)N/N=C/c2ccccc2OC)S(=O)(=O)c2ccccc2)cc1,19.9
2,CCCN(C(=O)c1ccc(OCC(C)C)cc1)c1c(N)n(Cc2ccccc2)c(=O)[nH]c1=O,-6.61
3,O=C(NNC(=O)c1ccc(F)cc1F)c1ccc2c(c1)OCO2,10.9
4,CC(C)c1ccc(O)c(C(=O)c2cnn(-c3ccccc3)c2)c1,11.4
5,O=C(COc1cc(Cl)c(Cl)cc1Cl)NCCc1ccccn1,-1.45
6,Cc1[nH]c2ccccc2c1/C=C/c1nc2ccccc2c(=O)n1CCO,-9.31
7,CC1CCN(C(=O)c2cc3ccccc3cc2O)CC1,-4.17
8,CC(=O)c1ccc(S(=O)(=O)NC2CC(=O)N(c3cccc(F)c3)C2)cc1 (centres unmarked),-28.1
9,COc1cc(C(=O)NCc2cc(C)nc3ccccc23)cc(OC)c1OC,24.4
10,O=C(c1cc2ccccc2s1)N1CCOCC1,2.99
11,COc1ccc(S(=O)(=O)NCCSCc2ccco2)cc1OC,-37.1
12,CC(Sc1nnc(Nc2ccccc2F)s1)C(=O)NC1CC1 (centres unmarked),-11.4
13,COc1cccc(CN(C(=O)c2ccccc2Br)C2CCS(=O)(=O)C2)c1 (centres unmarked),19
14,Cc1cc(C(=O)NNC(=O)c2cccc(S(=O)(=O)N3CCOCC3)c2)c2ccccc2n1,23
15,CC1(c2nnc(-c3ccncc3)o2)CC(c2ccc(F)cc2)=NO1 (centres unmarked),-22.3
16,COc1cccc(C(=O)C2CCCN(Cc3cccc(OCCO)c3)C2)c1 (centres unmarked),-48.7
17,CCOC(=O)c1c(NC(=O)CSc2nnc3ccccn23)sc2c1CCC2,-18.7
18,Cc1ccc(CNC(=O)COc2cc(O)c3c(c2)OC(C)(C)CC3=O)cc1,-8.48
19,O=C(COc1ccc(Cl)cc1Cl)NN=C1CCCCC1,5.47
20,CCCCC(=O)Nc1ccc(NC(=O)C(C)C)cn1,12.1
21,Cc1cccn2cc(CNC(=O)c3ccco3)nc12,0.32
22,Cc1ccc(NC(=O)CSc2nnc(-c3cccnc3)n2-c2ccc(C)cc2)cc1,-21.4
23,c1ccc(C2=Nc3cccnc3C(c3ccccc3)=NN2)cc1,15.9

row,SMILES,"hERG current change (%, negative = inhibition) at 10uM [%]"
1,O=C(CN1CCN(Cc2ccc(F)cc2Cl)C1=O)NCc1cccs1,-25.2
2,O=C(CSc1nnc(-c2cccc(F)c2)o1)Nc1nncs1,14.1
3,CCOC(=O)C1CCCN(Cc2ccc(O)c(OC)c2)C1 (centres unmarked),-6.59
4,Cc1cccc(C(=O)NNS(=O)(=O)c2ccc(F)cc2)c1O,18.1
5,CCC(c1nnc(SCc2nc3ccccc3s2)n1Cc1ccccc1)N(C)C (centres unmarked),-44.1
6,COc1ccccc1NS(=O)(=O)c1cccc(NC(=O)NCCCl)c1,-17.1
7,N#Cc1ccc(NC(=O)Nc2cccc(C#N)c2)cc1,-0.182
8,O=c1cc(CN2CCN(Cc3ccccc3)CC2)c2ccc(O)cc2o1,-76.8
9,CC(=O)Nc1ccc(C(=O)CSc2nnnn2C)cc1,5.55
10,COCC(=O)N(Cc1cc2cc(C)ccc2[nH]c1=O)c1ccccc1,11.6
11,Cc1ccc(NC(=S)NC(=O)C2CC2)c(C)c1,20
12,O=C(/C=C/c1ccc([N+](=O)[O-])cc1)NCc1cccnc1,-42.7
13,O=C(Nc1ccc(NC(=O)c2ccco2)nc1)c1cccnc1,-2.18
14,Cc1oc2c(CN3CCCC3)c(O)ccc2c(=O)c1-c1ccc(Cl)cc1,-6.69
15,O=C(C1CCCN(S(=O)(=O)c2ccc(F)cc2)C1)N1CCCCCC1 (centres unmarked),-24
16,Cc1cccc(NS(=O)(=O)c2cc([N+](=O)[O-])ccc2C)n1,11.4
17,COC(=O)c1cnc(N2CCCN(S(=O)(=O)c3ccc(C(F)(F)F)cc3)CC2)nc1C(F)(F)F,5.87
18,Cc1c(C(=O)N(C)c2ccc(Cl)cc2)cnn1-c1ccccc1,3.59
19,CCOc1ccc(NC(=O)c2cccc3c2C(=O)N(CC2CCCO2)C3)cc1 (centres unmarked),-5.79
20,O=C(N/N=C/c1ccsc1)c1cc(-c2ccncc2)nc2ccccc12,-28.5
